First the molecules themselves.
T1: RBFOX1 RRM (Homo sapiens, UniProt Q9NWB1 109-208)
T1 sequence: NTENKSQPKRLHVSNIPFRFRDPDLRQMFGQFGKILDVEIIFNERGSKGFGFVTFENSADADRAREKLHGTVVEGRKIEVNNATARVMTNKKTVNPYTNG

B1: CAGAUAG (DNA:RNA)
RNA: GGGAGACCGGAAUUCAGAUUGUCCCAGAUAGUUAAAUCCCGUCGUAGCCACCA
DNA 1: CAATCTGAATTCCGGTCTCCC
DNA 2: TGGTGGCTACGACGGGATT
B2: GCAACGG (DNA:RNA)
RNA: B1 RNA with C25G, A26C, G27A, U29C, A30G
DNA 1: CAATCTGAATTCCGGTCTCCC
DNA 2: TGGTGGCTACGACGGGATT
B3: AGUAUGG (DNA:RNA)
RNA: B1 RNA with C25A, A26G, G27U, A30G
DNA 1: CAATCTGAATTCCGGTCTCCC
DNA 2: TGGTGGCTACGACGGGATT
B4: CCAUGCA (DNA:RNA)
RNA: B1 RNA with A26C, G27A, A28U, U29G, A30C, G31A
DNA 1: CAATCTGAATTCCGGTCTCCC
DNA 2: TGGTGGCTACGACGGGATT
B5: GCUCCAU (DNA:RNA)
RNA: B1 RNA with C25G, A26C, G27U, A28C, U29C, G31U
DNA 1: CAATCTGAATTCCGGTCTCCC
DNA 2: TGGTGGCTACGACGGGATT
B6: GGAUGAC (DNA:RNA)
RNA: B1 RNA with C25G, A26G, G27A, A28U, U29G, G31C
DNA 1: CAATCTGAATTCCGGTCTCCC
DNA 2: TGGTGGCTACGACGGGATT
B7: CUAAUCU (DNA:RNA)
RNA: B1 RNA with A26U, G27A, A30C, G31U
DNA 1: CAATCTGAATTCCGGTCTCCC
DNA 2: TGGTGGCTACGACGGGATT
B8: GUCUCAG (DNA:RNA)
RNA: B1 RNA with C25G, A26U, G27C, A28U, U29C
DNA 1: CAATCTGAATTCCGGTCTCCC
DNA 2: TGGTGGCTACGACGGGATT
B9: GAGCAAA (DNA:RNA)
RNA: B1 RNA with C25G, A28C, U29A, G31A
DNA 1: CAATCTGAATTCCGGTCTCCC
DNA 2: TGGTGGCTACGACGGGATT
B10: GUACCAA (DNA:RNA)
RNA: B1 RNA with C25G, A26U, G27A, A28C, U29C, G31A
DNA 1: CAATCTGAATTCCGGTCTCCC
DNA 2: TGGTGGCTACGACGGGATT
B11: UGGAAAG (DNA:RNA)
RNA: B1 RNA with C25U, A26G, U29A
DNA 1: CAATCTGAATTCCGGTCTCCC
DNA 2: TGGTGGCTACGACGGGATT
B12: AGAUAAU (DNA:RNA)
RNA: B1 RNA with C25A, A26G, G27A, A28U, U29A, G31U
DNA 1: CAATCTGAATTCCGGTCTCCC
DNA 2: TGGTGGCTACGACGGGATT
B13: GCACAAU (DNA:RNA)
RNA: B1 RNA with C25G, A26C, G27A, A28C, U29A, G31U
DNA 1: CAATCTGAATTCCGGTCTCCC
DNA 2: TGGTGGCTACGACGGGATT
B14: AAUGAGU (DNA:RNA)
RNA: B1 RNA with C25A, G27U, A28G, U29A, A30G, G31U
DNA 1: CAATCTGAATTCCGGTCTCCC
DNA 2: TGGTGGCTACGACGGGATT
B15: CAUAGGA (DNA:RNA)
RNA: B1 RNA with G27U, U29G, A30G, G31A
DNA 1: CAATCTGAATTCCGGTCTCCC
DNA 2: TGGTGGCTACGACGGGATT
B16: CAUUCAA (DNA:RNA)
RNA: B1 RNA with G27U, A28U, U29C, G31A
DNA 1: CAATCTGAATTCCGGTCTCCC
DNA 2: TGGTGGCTACGACGGGATT
B17: CAAGAUA (DNA:RNA)
RNA: B1 RNA with G27A, A28G, U29A, A30U, G31A
DNA 1: CAATCTGAATTCCGGTCTCCC
DNA 2: TGGTGGCTACGACGGGATT
B18: GGUAGAU (DNA:RNA)
RNA: B1 RNA with C25G, A26G, G27U, U29G, G31U
DNA 1: CAATCTGAATTCCGGTCTCCC
DNA 2: TGGTGGCTACGACGGGATT
B19: UCUAUGC (DNA:RNA)
RNA: B1 RNA with C25U, A26C, G27U, A30G, G31C
DNA 1: CAATCTGAATTCCGGTCTCCC
DNA 2: TGGTGGCTACGACGGGATT
B20: GCGCAAG (DNA:RNA)
RNA: B1 RNA with C25G, A26C, A28C, U29A
DNA 1: CAATCTGAATTCCGGTCTCCC
DNA 2: TGGTGGCTACGACGGGATT

Changes are numbered by the printed parent chain; changes in the protein carry UniProt numbers. The list shows a part of the results.

The target of the test is T1, RBFOX1 RRM. Nature of the test: EMSA; HiTS-Eq, 1 nM pool, 10 min; buffer printed only for the single-RNA assays: 10 mM Tris pH 7.5, 150 mM NaCl, 3.4 mM EDTA, 0.001% NP-40, 30 C. The following applies: tags: His6 N-terminal (pET28a); label: 5' 32P. An outline of the steps:
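Relative association constants, normalised to the cognate motif, were derived by comparing read counts of each RNA species with those of the control reaction. The RNA sequenced was the free fraction, separated by 8% native PAGE after a 10 min equilibration in 50 µL of 1 nM 5′-radiolabelled RNA (7 randomized nucleotides) with increasing concentrations of purified wild-type or mutant RbFox RRM.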
On the technique in general: Mobility shift assays separate free from complexed probe on a gel.
Regarding B1, the binding signal is 0.0109 KA relative to UGCAUGU.
As for B2, the binding signal was 0.014 KA relative to UGCAUGU.
For B3 the value was 0.00967 KA relative to UGCAUGU.
With B4, the binding signal is 0.00814 KA relative to UGCAUGU.
The result for B5 reads 0.00701 KA relative to UGCAUGU; that for B6, 0.015 KA relative to UGCAUGU.
For B7 the value was 0.00336 KA relative to UGCAUGU.
For B8, the binding signal is 0.0141 KA relative to UGCAUGU.
Turning to B9, the binding signal is 0.00616 KA relative to UGCAUGU.
Turning to B10, the binding signal was 0.00123 KA relative to UGCAUGU.
The result for B11 reads 0.0254 KA relative to UGCAUGU; that for B12, 0.00177 KA relative to UGCAUGU.
With B13, the binding signal was 0.00472 KA relative to UGCAUGU.
For B14 the value was 0.0108 KA relative to UGCAUGU; for B15, 0.00268 KA relative to UGCAUGU; for B16, 0.000181 KA relative to UGCAUGU.
The result for B17 reads 0.00153 KA relative to UGCAUGU.
For B18 the value was 0.0134 KA relative to UGCAUGU; for B19, 0.0108 KA relative to UGCAUGU; for B20, 0.0193 KA relative to UGCAUGU.

(Values after PMC9911399, “Two distinct binding modes provide the RNA-binding protein RbFox with extraordinary sequence specificity”.)
